Measurements reported in EPA's CvTdb concentration-time database.
The source gives many values for each of these; only a part stands here.

How the values were obtained:
Experiment in all cases: concentration in plasma after dosing
[1] = tested on: Rat; conditions: dosed: Perfluorodecanoic acid, 20 mg/kg, oral, Female, Harlan Sprague Dawley
[2] = tested on: Rat; conditions: dosed: Perfluorodecanoic acid, 20 mg/kg, oral, Female, Harlan Sprague Dawley; remark: listed apart in the source
[3] = tested on: Rat; conditions: dosed: Perfluorodecanoic acid, 2 mg/kg, oral, Male, Harlan Sprague Dawley
[4] = tested on: Rat; conditions: 24 h; dosed: Perfluorodecanoic acid; 10 mg/kg; oral; Female; Harlan Sprague Dawley
[5] = tested on: Rat; conditions: dosed: Perfluorodecanoic acid, 10 mg/kg, oral, Male, Harlan Sprague Dawley
[6] = tested on: Rat; conditions: dosed: Perfluorodecanoic acid, 20 mg/kg, oral, Male, Harlan Sprague Dawley
[7] = tested on: Rat; conditions: dosed: Perfluorodecanoic acid, 2 mg/kg, oral, Male, Harlan Sprague Dawley; remark: listed apart in the source
[8] = tested on: Rat; conditions: dosed: Perfluorooctane Sulfonate, 2 mg/kg, oral, Female, Harlan Sprague Dawley
[9] = tested on: Rat; conditions: dosed: Perfluorooctane Sulfonate, 20 mg/kg, oral, Female, F344
[10] = tested on: Rat; conditions: dosed: Perfluorooctane Sulfonate, 20 mg/kg, oral, Female, F344; remark: listed apart in the source
[11] = tested on: Rat; conditions: dosed: Perfluorooctane Sulfonate, 2 mg/kg, oral, Female, Harlan Sprague Dawley; remark: listed apart in the source
[12] = tested on: Rat; conditions: 3360 h; dosed: Perfluorooctane Sulfonate; 20 mg/kg; oral; Male; Harlan Sprague Dawley
[13] = tested on: Rat; conditions: 6 h; dosed: Perfluorooctane Sulfonate; 20 mg/kg; oral; Male; Harlan Sprague Dawley
[14] = tested on: Rat; conditions: dosed: Perfluorooctane Sulfonate, 20 mg/kg, oral, Male, F344
[15] = tested on: Rat; conditions: dosed: Perfluorooctane Sulfonate, 20 mg/kg, oral, Female, F344; remark: listed apart in the source
[16] = tested on: Rat; conditions: 864 h; dosed: Perfluorooctane Sulfonate; 2 mg/kg; oral; Female; Harlan Sprague Dawley
[17] = tested on: Rat; conditions: 24 h; dosed: Perfluorooctane Sulfonate; 20 mg/kg; oral; Female; F344
[18] = tested on: Rat; conditions: 1 h; dosed: Fluorotelomer alcohol 8+2; 24 mg/kg; oral; Male; Harlan Sprague Dawley
[19] = tested on: Rat; conditions: dosed: Fluorotelomer alcohol 8+2, 40 mg/kg, oral, Female, Harlan Sprague Dawley
[20] = tested on: Rat; conditions: 0.5 h; dosed: Fluorotelomer alcohol 8+2; 80 mg/kg; oral; Female; Harlan Sprague Dawley
[21] = tested on: Rat; conditions: 12 h; dosed: Perfluorooctanoic acid; 80 mg/kg; oral; Female; Harlan Sprague Dawley
[22] = tested on: Rat; conditions: dosed: Perfluorooctanoic acid, 40 mg/kg, oral, Male, Harlan Sprague Dawley
[23] = tested on: Rat; conditions: 6 h; dosed: Perfluorooctanoic acid; 12 mg/kg; oral; Male; Harlan Sprague Dawley
[24] = tested on: Rat; conditions: dosed: Fluorotelomer alcohol 8+2, 160 mg/kg, oral, Female, Harlan Sprague Dawley
[25] = tested on: Rat; conditions: dosed: Perfluorooctanoic acid, 48 mg/kg, oral, Male, Harlan Sprague Dawley
[26] = tested on: Rat; conditions: dosed: Perfluorooctanoic acid, 6 mg/kg, iv, Male, F344
[27] = tested on: Rat; conditions: dosed: Perfluorooctanoic acid, 320 mg/kg, oral, Female, Harlan Sprague Dawley
[28] = tested on: Rat; conditions: 9 h; dosed: Fluorotelomer alcohol 8+2; 80 mg/kg; oral; Female; Harlan Sprague Dawley
[29] = tested on: Rat; conditions: 192 h; dosed: Perfluorooctanoic acid; 80 mg/kg; oral; Female; Harlan Sprague Dawley
[30] = tested on: Rat; conditions: 1 h; dosed: Fluorotelomer alcohol 8+2; 24 mg/kg; oral; Male; Harlan Sprague Dawley; remark: listed apart in the source
[31] = tested on: Rat; conditions: dosed: Perfluorooctanoic acid, 6 mg/kg, iv, Male, F344; remark: listed apart in the source
[32] = tested on: Rat; conditions: dosed: Perfluorooctanoic acid, 6 mg/kg, oral, Male, Harlan Sprague Dawley
[33] = tested on: Rat; conditions: dosed: Perfluorooctanoic acid, 6 mg/kg, iv, Male, F344; remark: listed apart in the source

Q: Which concentration in plasma ([1]; 12 h) does the source give for `O=C(O)C(F)(F)C(F)(F)C(F)(F)C(F)(F)C(F)(F)C(F)(F)C(F)(F)C(F)(F)C(F)(F)F` [Perfluorodecanoic acid] here?
A: Its concentration in plasma is 116000 ng/mL.

Q: And the concentration in plasma ([1]; 1200 h)?
A: Its concentration in plasma is 28700 ng/mL.

Q: And the concentration in plasma ([2]; 0.5 h)?
A: Its concentration in plasma is 29600 ng/mL.

Q: And the concentration in plasma ([2]; 24 h)?
A: The concentration in plasma was 146000 ng/mL.

Q: What about the concentration in plasma ([2]; 1848 h) of the same compound?
A: Its concentration in plasma is 15000 ng/mL.

Q: What about the concentration in plasma ([3]; 12 h) of the same compound?
A: The concentration in plasma was 9930 ng/mL.

Q: What about the concentration in plasma ([3]; 1200 h) of the same compound?
A: The concentration in plasma was 2790 ng/mL.

Q: And the concentration in plasma [4]?
A: The concentration in plasma was 58300 ng/mL.

Q: And the concentration in plasma ([5]; 2 h)?
A: The concentration in plasma was 27100 ng/mL.

Q: What about the concentration in plasma ([5]; 528 h) of the same compound?
A: The concentration in plasma was 13900 ng/mL.

Q: And the concentration in plasma ([5]; 2520 h)?
A: The concentration in plasma was 2940 ng/mL.

Q: What about the concentration in plasma ([6]; 0.5 h) of the same compound?
A: Its concentration in plasma is 19600 ng/mL.

Q: What about the concentration in plasma ([6]; 24 h) of the same compound?
A: Its concentration in plasma is 82800 ng/mL.

Q: What about the concentration in plasma ([6]; 1848 h) of the same compound?
A: The concentration in plasma was 11000 ng/mL.

Q: And the concentration in plasma ([7]; 2 h)?
A: The concentration in plasma was 6480 ng/mL.

Q: What about the concentration in plasma ([7]; 528 h) of the same compound?
A: The concentration in plasma was 4150 ng/mL.

Q: What about the concentration in plasma ([7]; 3360 h) of the same compound?
A: Its concentration in plasma is 605 ng/mL.

Q: What does the source list for `O=S(=O)([O-])C(F)(F)C(F)(F)C(F)(F)C(F)(F)C(F)(F)C(F)(F)C(F)(F)C(F)(F)F` [Perfluorooctane Sulfonate]?
A: concentration in plasma ([8]; 1 h): 2220 ng/mL; concentration in plasma ([8]; 192 h): 4740 ng/mL; concentration in plasma ([8]; 2520 h): 1180 ng/mL; concentration in plasma ([9]; 5 min): 714 ng/mL; concentration in plasma ([9]; 192 h): 66400 ng/mL; concentration in plasma ([9]; 1200 h): 25200 ng/mL; concentration in plasma ([10]; 5 min): 446 ng/mL; concentration in plasma ([10]; 192 h): 68600 ng/mL; concentration in plasma ([10]; 1200 h): 29800 ng/mL; concentration in plasma ([11]; 1 h): 3310 ng/mL; concentration in plasma ([11]; 528 h): 6380 ng/mL; concentration in plasma ([11]; 2520 h): 1620 ng/mL; concentration in plasma [12]: 3020 ng/mL; concentration in plasma [13]: 93200 ng/mL; concentration in plasma ([14]; 12 h): 85000 ng/mL; concentration in plasma ([14]; 528 h): 33400 ng/mL; concentration in plasma ([15]; 5 min): 891 ng/mL; concentration in plasma ([15]; 12 h): 114000 ng/mL; concentration in plasma ([15]; 1200 h): 29800 ng/mL; concentration in plasma [16]: 3270 ng/mL; concentration in plasma [17]: 85800 ng/mL

Q: With `O=C(O)C(F)(F)C(F)(F)C(F)(F)C(F)(F)C(F)(F)C(F)(F)C(F)(F)F` [Perfluorooctanoic acid] as the compound, how does the concentration in plasma [18] read?
A: The concentration in plasma was 620 ng/mL.

Q: And the concentration in plasma ([19]; 0.5 h)?
A: Its concentration in plasma is 571 ng/mL.

Q: And the concentration in plasma ([19]; 9 h)?
A: The concentration in plasma was 922 ng/mL.

Q: And the concentration in plasma [20]?
A: Its concentration in plasma is 497 ng/mL.

Q: And the concentration in plasma [21]?
A: The concentration in plasma was 85800 ng/mL.

Q: What about the concentration in plasma ([22]; 3 h) of the same compound?
A: The concentration in plasma was 125000 ng/mL.

Q: What about the concentration in plasma ([22]; 24 h) of the same compound?
A: The concentration in plasma was 2020 ng/mL.

Q: What about the concentration in plasma [23] of the same compound?
A: The concentration in plasma was 79800 ng/mL.

Q: What about the concentration in plasma ([24]; 0.5 min) of the same compound?
A: Its concentration in plasma is 655 ng/mL.

Q: And the concentration in plasma ([24]; 9 h)?
A: The concentration in plasma was 2800 ng/mL.

Q: And the concentration in plasma ([25]; 0.25 h)?
A: The concentration in plasma was 14100 ng/mL.

Q: And the concentration in plasma ([25]; 6 h)?
A: Its concentration in plasma is 272000 ng/mL.

Q: What about the concentration in plasma ([25]; 528 h) of the same compound?
A: The concentration in plasma was 41400 ng/mL.

Q: And the concentration in plasma ([26]; 1 h)?
A: The concentration in plasma was 46800 ng/mL.

Q: And the concentration in plasma ([26]; 24 h)?
A: The concentration in plasma was 48300 ng/mL.

Q: And the concentration in plasma ([26]; 1200 h)?
A: Its concentration in plasma is 841 ng/mL.

Q: What about the concentration in plasma ([27]; 1 h) of the same compound?
A: The concentration in plasma was 445000 ng/mL.

Q: What about the concentration in plasma ([27]; 12 h) of the same compound?
A: The concentration in plasma was 198000 ng/mL.

Q: And the concentration in plasma [28]?
A: The concentration in plasma was 2990 ng/mL.

Q: And the concentration in plasma [29]?
A: The concentration in plasma was 1390 ng/mL.

Q: What about the concentration in plasma [30] of the same compound?
A: The concentration in plasma was 423 ng/mL.

Q: What about the concentration in plasma ([31]; 0.25 h) of the same compound?
A: The concentration in plasma was 58900 ng/mL.

Q: What about the concentration in plasma ([31]; 12 h) of the same compound?
A: The concentration in plasma was 47400 ng/mL.

Q: And the concentration in plasma ([31]; 864 h)?
A: The concentration in plasma was 3040 ng/mL.

Q: And the concentration in plasma ([32]; 6 h)?
A: The concentration in plasma was 45600 ng/mL.

Q: What about the concentration in plasma ([32]; 192 h) of the same compound?
A: Its concentration in plasma is 19800 ng/mL.

Q: What about the concentration in plasma ([33]; 5 min) of the same compound?
A: The concentration in plasma was 57300 ng/mL.

Q: And the concentration in plasma ([33]; 3 h)?
A: The concentration in plasma was 41900 ng/mL.

Q: What about the concentration in plasma ([33]; 528 h) of the same compound?
A: The concentration in plasma was 5290 ng/mL.
